From the supplement of paper PMC4967469
IC50 is the fitted dose that halves viability relative to control wells, and lower means more sensitive; where the fit passes the top or lowest dose, that dose stands as a limit. AUC, from the same fit, is the share of area under the viability curve across the 256-fold dose range; the more sensitive the line, the further below 1. For some assays here: Any top dose called inferred is not printed in the source and was worked back from the curve model.

What was measured:
Test in all cases: Viability of human cancer cell lines after 72 h of drug (GDSC screen)
[1] = compound: C=CC(=O)Nc1cc(NC(=O)c2ccc(C)c(NC(=O)c3ccno3)c2)cc(C(F)(F)F)c1 [QL-XI-92]; conditions: top dose 10.24 µM; top dose inferred
Description: (§1)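 Human cancer cell lines in 384-well plates, medium with 10% serum, drug for 72 h over a 256-fold dose range (nine 2-fold or five 4-fold steps up to the top dose). Adherent lines were fixed and stained with the nucleic acid dye Syto60, suspension lines read with resazurin; signal relative to control wells, capped at 0 and 100%. One two-parameter sigmoid per drug and line, fitted in a mixed model over all curves with the slope shared within a line.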

[2] = compound: CCC1=C[C@@H]2CN(C1)Cc1c([nH]c3ccccc13)[C@@](C(=O)OC)(c1cc3c(cc1OC)N(C)[C@H]1[C@@](O)(C(=O)OC)[C@H](OC(C)=O)[C@]4(CC)C=CCN5CC[C@]31[C@@H]54)C2 [Vinorelbine]; conditions: top dose 0.064 µM; top dose inferred
Description: as §1

[3] = compound: CNCc1ccc(-c2[nH]c3cc(F)cc4c3c2CCNC4=O)cc1 [AG-014699]; conditions: top dose 5 µM; top dose inferred
Description: as §1

[4] = compound: COc1cc2nccc(Oc3ccc(NC(=O)C4(C(=O)Nc5ccc(F)cc5)CC4)cc3)c2cc1OC [XL-184]; conditions: top dose 5.12 µM; top dose inferred
Description: as §1

[5] = compound: COc1cc2ncnc(Nc3cc(Br)c(O)c(Br)c3)c2cc1OC [WHI-P97]; conditions: top dose 10.24 µM; top dose inferred
Description: as §1

[6] = compound: COc1cc2ncnc(Nc3ccc(F)c(Cl)c3)c2cc1OCCCN1CCOCC1 [Gefitinib]; conditions: top dose 0.5 µM
Description: as §1

[7] = compound: N=C(N)NC(=N)NCCc1ccccc1 [Phenformin]; conditions: top dose 4000 µM; top dose inferred
Description: as §1

[8] = compound: O=c1cc(CN2CCOCC2)occ1OCCCCCSc1ccnc2cc(C(F)(F)F)ccc12 [EHT 1864]; conditions: top dose 10 µM; top dose inferred
Description: as §1

[9] = compound: O=c1cc(N2CCOCC2)oc2c(-c3cccc4c3sc3ccccc34)cccc12 [NU-7441]; conditions: top dose 2 µM; top dose inferred
Description: as §1

Cell Line	AUC [1]	IC50 [1]	AUC [2]	IC50 [2]	AUC [3]	IC50 [3]	AUC [4]	IC50 [4]	AUC [5]	IC50 [5]	AUC [6]	IC50 [6]	AUC [7]	IC50 [7]	AUC [8]	IC50 [8]	AUC [9]	IC50 [9]
OCUM-1 (stomach, adherent)	0.987	> 10.2 µM	0.863	> 0.064 µM	0.981	> 5 µM	0.982	> 5.12 µM	0.986	> 10.2 µM	0.985	> 0.5 µM	0.929	> 4000 µM	0.978	> 10 µM	0.983	> 2 µM
OE19 (oesophagus, adherent)	0.986	> 10.2 µM	0.68	0.0137 µM	0.984	> 5 µM	0.986	> 5.12 µM	0.983	> 10.2 µM	0.971	> 0.5 µM	0.741	1360 µM	0.986	> 10 µM	0.937	> 2 µM
OE21 (oesophagus, adherent)	0.963	> 10.2 µM	0.517	0.00454 µM	0.978	> 5 µM	0.961	> 5.12 µM	0.92	> 10.2 µM	0.793	0.332 µM	0.834	> 4000 µM	0.938	> 10 µM	0.941	> 2 µM
OE33 (oesophagus, adherent)	0.974	> 10.2 µM	0.684	0.0145 µM	0.969	> 5 µM	0.719	1.53 µM	0.979	> 10.2 µM	0.971	> 0.5 µM	0.979	> 4000 µM	0.955	> 10 µM	0.963	> 2 µM
OSC-20 (head and neck, adherent)	0.943	> 10.2 µM	0.653	0.0116 µM	0.919	> 5 µM	0.892	> 5.12 µM	0.972	> 10.2 µM	0.865	> 0.5 µM	0.841	3570 µM	0.957	> 10 µM	0.955	> 2 µM
OV-90 (ovary, adherent)	0.972	> 10.2 µM	0.748	0.0258 µM	0.982	> 5 µM	0.966	> 5.12 µM	0.977	> 10.2 µM	0.978	> 0.5 µM	0.579	437 µM	0.941	> 10 µM	0.956	> 2 µM
OVCAR-5 (ovary, adherent)	0.968	> 10.2 µM	0.806	0.0407 µM	0.982	> 5 µM	0.952	> 5.12 µM	0.934	> 10.2 µM	0.979	> 0.5 µM	0.859	> 4000 µM	0.98	> 10 µM	0.982	> 2 µM
OVISE (ovary, adherent)	0.92	> 10.2 µM	0.77	0.0326 µM	0.931	> 5 µM	0.971	> 5.12 µM	0.875	> 10.2 µM	0.787	0.298 µM	0.783	2310 µM	0.96	> 10 µM	0.897	> 2 µM
OVKATE (ovary, adherent)	0.979	> 10.2 µM	0.953	> 0.064 µM	0.979	> 5 µM	0.824	> 5.12 µM	0.965	> 10.2 µM	0.947	> 0.5 µM	0.889	> 4000 µM	0.979	> 10 µM	0.964	> 2 µM
OVMIU (ovary, adherent)	0.931	> 10.2 µM	0.684	0.015 µM	0.932	> 5 µM	0.924	> 5.12 µM	0.764	4.62 µM	0.699	0.132 µM	0.741	1480 µM	0.952	> 10 µM	0.948	> 2 µM
OVTOKO (ovary, adherent)	0.957	> 10.2 µM	0.783	0.0351 µM	0.957	> 5 µM	0.936	> 5.12 µM	0.92	> 10.2 µM	0.803	0.331 µM	0.814	2960 µM	0.887	> 10 µM	0.872	> 2 µM
P12-ICHIKAWA (T-cell lymphoblastic leukaemia, suspension)	0.969	> 10.2 µM	0.638	0.00876 µM	0.994	> 5 µM	0.978	> 5.12 µM	0.978	> 10.2 µM	0.994	> 0.5 µM	0.418	158 µM	0.908	8.24 µM	0.994	> 2 µM
PA-1 (ovary, adherent)	0.848	5.24 µM	0.457		0.863	2.87 µM	0.872	3.16 µM	0.93	> 10.2 µM	0.99	> 0.5 µM	0.576	384 µM	0.953	> 10 µM	0.972	> 2 µM
PA-TU-8902 (pancreas, adherent)	0.926	> 10.2 µM	0.784	0.0323 µM	0.936	> 5 µM	0.919	> 5.12 µM	0.912	> 10.2 µM	0.969	> 0.5 µM	0.589	458 µM	0.955	> 10 µM	0.982	> 2 µM
PANC-02-03 (pancreas, adherent)	0.972	> 10.2 µM	0.774	0.0304 µM	0.958	> 5 µM	0.82	3.73 µM	0.787	5.44 µM	0.903	> 0.5 µM	0.576	422 µM	0.961	> 10 µM	0.887	> 2 µM
